Where “and” joins values, the source holds several entries; their conditions need not be identical. Identical values can stand only once. Not every detail of the peptide structures is certain; ends, links or a residue may be inferred. For at least one compound, name, drawing or mass did not settle the structure. Numbered stars: 1 amine (or outer) side, 2 acyl side, 3 side chain; on linkers, the order of the positions; unused ones are H or OH. Side chains are listed from the residue outwards. Peptide text beside a SMILES is read from it. * marks the point of attachment. γGlu = O=C(O)[C@H](CCC(=O)[*:2])N[*:1]; Palmitoyl = CCCCCCCCCCCCCCCC(=O)*; Lauroyl = CCCCCCCCCCCC(=O)*; AEEA = NCCOCCOCC(=O)O
Key:
human GIP receptor [1] = target: T1, human GIP receptor (Homo sapiens, UniProt P48546); assay: 125I-human GIP competition binding assay, in the presence and absence of 2% HSA
T1 construct: host or cells: COS-7, transient transfection (calcium phosphate), cDNA in pCMV-Script
T1 sequence (P48546 22-466): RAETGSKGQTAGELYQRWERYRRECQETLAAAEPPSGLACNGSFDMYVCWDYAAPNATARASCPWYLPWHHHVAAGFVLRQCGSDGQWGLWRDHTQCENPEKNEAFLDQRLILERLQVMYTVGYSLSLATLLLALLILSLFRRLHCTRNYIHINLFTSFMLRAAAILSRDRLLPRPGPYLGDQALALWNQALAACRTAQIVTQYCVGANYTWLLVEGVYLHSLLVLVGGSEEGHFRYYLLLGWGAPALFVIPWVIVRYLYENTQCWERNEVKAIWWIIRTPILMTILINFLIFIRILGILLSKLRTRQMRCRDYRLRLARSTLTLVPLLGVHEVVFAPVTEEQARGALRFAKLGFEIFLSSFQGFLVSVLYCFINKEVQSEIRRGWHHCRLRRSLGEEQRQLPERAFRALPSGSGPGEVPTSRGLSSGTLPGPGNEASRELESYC

human GIP receptor [2] = target: T1, human GIP receptor; assay: cAMP accumulation assay, antagonism of a GIP-mediated cAMP response (50-80% of max); format: cell-based; details: for cAMP antagonism log / IC50: transiently transfected COS-7 cells; for cAMP antagonism log: Table 1; for IC50: Table 1 and text, read-out: cAMP antagonism nM (IC50, antagonistic potency)
Procedure: The day after, the cells were washed twice with Hepes buffered saline (HBS) buffer and incubated with HBS and 1 mM 3-isobutyl-1-methylxanthine (IBMX) for 30 min at 37° C. […] The HitHunter™ cAMP XS assay (DiscoveRx) was carried out according to the manufacturer's instructions.

human GIP receptor [3] = target: T1, human GIP receptor; assay: cAMP accumulation assay, agonism (ligand alone); format: cell-based; details: given as log EC50 (negative sign); Table 1
Procedure: COS-7 cells were cultured at 10% CO2 and 37° C. in Dulbecco's modified Eagle's medium 1885 supplemented with 10% fetal bovine serum, 2 mM glutamine, 180 units/ml penicillin, and 45 µg/ml streptomycin. Transient transfection of the COS-7 cells for cAMP accumulation and competition binding was performed using the calcium phosphate precipitation method with the addition of chloroquine^46-47.
Transient transfected COS-7 cells expressing the human GIP receptor were seeded in white 96-well plates with a density of 3.5*10^4/well. The day after, the cells were washed twice with Hepes buffered saline (HBS) buffer and incubated with HBS and 1 mM 3-isobutyl-1-methylxanthine (IBMX) for 30 min at 37° C. To test for agonistic properties, ligands were added and incubated for 30 min at 37° C. In order to test for antagonistic properties, the cells were preincubated with the antagonists for 10 min prior to the addition of the agonist and subsequent incubated for 20 additional min. The HitHunter™ cAMP XS assay (DiscoveRx) was carried out according to the manufacturer's instructions.
IC50, EC50, and Ki values were determined by nonlinear regression. These were carried out with the GraphPad Prism 6.0 software (GraphPad, San Diego, Calif., USA) and Microsoft Excel™. Ki values were based on the formula for one class of binding sites in homologous competition binding studies and the Cheng Prussoffs formula, respectively (DeBlasi et al., 1989). To determine the HSA binding potential, the fold change in affinity (as determined by IC50) was calculated as IC50 (plus HSA)/IC50 (minus HSA).

[4] = heterologous competition binding, transiently transfected COS-7 cells expressing the human GIP receptor, read-out: Binding
[5] = given as log IC50 (negative sign)

SMILES | IC50 (human GIP receptor [1]; [4]) [nM] | cAMP antagonism log (human GIP receptor [2]; [5]) | IC50 (human GIP receptor [2]) | cAMP agonism EC50 (log) (human GIP receptor [3]) | other results
CCCCCCCCCCCCCCCCCC(=O)NCCCC[C@H](NC(=O)[C@H](CC(=O)O)NC(=O)[C@H](CCSC)NC(=O)[C@H](C)NC(=O)[C@@H](NC(=O)[C@H](CO)NC(=O)[C@H](Cc1ccc(O)cc1)NC(=O)[C@H](CC(=O)O)NC(=O)[C@H](CO)NC(=O)[C@@H](NC(=O)[C@H](Cc1ccccc1)NC(=O)[C@@H](NC(=O)CNC(=O)[C@@H](N)CCC(=O)O)[C@@H](C)O)[C@@H](C)CC)[C@@H](C)CC)C(=O)N[C@H](C(=O)N[C@@H](CCCNC(=N)N)C(=O)N[C@@H](CCC(N)=O)C(=O)N[C@@H](CCC(N)=O)C(=O)N[C@@H](CC(=O)O)C(=O)N[C@@H](Cc1ccccc1)C(=O)N[C@H](C(=O)N[C@@H](CC(N)=O)C(=O)N[C@@H](Cc1c[nH]c2ccccc12)C(=O)N[C@@H](CC(C)C)C(=O)N[C@@H](CC(C)C)C(=O)N[C@@H](C)C(=O)N[C@@H](CCC(N)=O)C(=O)N[C@@H](CCCNC(=N)N)C(N)=O)C(C)C)[C@@H](C)CC [AT162, [hGIP(3-30)NH2[H18R; K30R]-C18/16]] | 85 | −7.6 | 26 nM and 27 nM | −5.9 | 
CC[C@H](C)[C@H](NC(=O)[C@H](CO)NC(=O)[C@H](Cc1ccc(O)cc1)NC(=O)[C@H](CC(=O)O)NC(=O)[C@H](CO)NC(=O)[C@@H](NC(=O)[C@H](Cc1ccccc1)NC(=O)[C@@H](N)[C@@H](C)O)[C@@H](C)CC)C(=O)N[C@@H](C)C(=O)N[C@@H](CCSC)C(=O)N[C@@H](CC(=O)O)C(=O)N[C@@H](CCCCN)C(=O)N[C@H](C(=O)N[C@@H](Cc1c[nH]cn1)C(=O)N[C@@H](CCC(N)=O)C(=O)N[C@@H](CCC(N)=O)C(=O)N[C@@H](CC(=O)O)C(=O)N[C@@H](Cc1ccccc1)C(=O)N[C@H](C(=O)N[C@@H](CC(N)=O)C(=O)N[C@@H](Cc1c[nH]c2ccccc12)C(=O)N[C@@H](CC(C)C)C(=O)N[C@@H](CC(C)C)C(=O)N[C@@H](C)C(=O)N[C@@H](CCC(N)=O)C(=O)N[C@@H](CCCCNC(=O)CCCCCCCCCCCCCCC(=O)O)C(N)=O)C(C)C)[C@@H](C)CC [AT372, [hGIP(5-30)NH2[Q30K]-C16diacid/30]] |  | −6.5 |  | −10 | 
CCCCCCCCCCCCCCCC(=O)NCCOCCOCC(=O)N[C@@H](CCC(=O)NCCCC[C@H](NC(=O)[C@@H](NC(=O)[C@H](CCCCN)NC(=O)[C@H](CC(=O)O)NC(=O)[C@H](CCSC)NC(=O)[C@H](C)NC(=O)[C@@H](NC(=O)[C@H](CO)NC(=O)[C@H](Cc1ccc(O)cc1)NC(=O)[C@H](CC(=O)O)NC(=O)[C@H](CO)NC(=O)[C@@H](NC(=O)[C@H](Cc1ccccc1)NC(=O)[C@@H](NC(=O)CNC(=O)[C@@H](N)CCC(=O)O)[C@@H](C)O)[C@@H](C)CC)[C@@H](C)CC)[C@@H](C)CC)C(=O)N[C@@H](CCC(N)=O)C(=O)N[C@@H](CCC(N)=O)C(=O)N[C@@H](CC(=O)O)C(=O)N[C@@H](Cc1ccccc1)C(=O)N[C@H](C(=O)N[C@@H](CC(N)=O)C(=O)N[C@@H](Cc1c[nH]c2ccccc12)C(=O)N[C@@H](CC(C)C)C(=O)N[C@@H](CC(C)C)C(=O)N[C@@H](C)C(=O)N[C@@H](CCC(N)=O)C(=O)N[C@@H](CCCCN)C(N)=O)C(C)C)C(=O)O [AT167, [hGIP(3-30)NH2[H18K]-C16/18+y-glutamic acid+8-amino-3,6-dioxaoctanoic acid]] (H-EGTFISDYSIAMDKIK([γGlu-AEEA-Palmitoyl])QQDFVNWLLAQK-NH2) |  |  |  |  | cAMP accumulation logIC50 ± SEM (human GIP receptor [2]; given as log IC50 (negative sign), linker analogues, n=2, Table 5): −8.36 ± 0.06
CC[C@H](C)[C@H](NC(=O)[C@H](CO)NC(=O)[C@H](Cc1ccc(O)cc1)NC(=O)[C@H](CC(=O)O)NC(=O)[C@H](CO)NC(=O)[C@@H](NC(=O)[C@H](Cc1ccccc1)NC(=O)[C@@H](NC(=O)CNC(=O)[C@@H](N)CCCCNC(=O)CCCCCCCCCCCCCCC(=O)O)[C@@H](C)O)[C@@H](C)CC)C(=O)N[C@@H](C)C(=O)N[C@@H](CCSC)C(=O)N[C@@H](CC(=O)O)C(=O)N[C@@H](CCCCN)C(=O)N[C@H](C(=O)N[C@@H](Cc1c[nH]cn1)C(=O)N[C@@H](CCC(N)=O)C(=O)N[C@@H](CCC(N)=O)C(=O)N[C@@H](CC(=O)O)C(=O)N[C@@H](Cc1ccccc1)C(=O)N[C@H](C(=O)N[C@@H](CC(N)=O)C(=O)N[C@@H](Cc1c[nH]c2ccccc12)C(=O)N[C@@H](CC(C)C)C(=O)N[C@@H](CC(C)C)C(=O)N[C@@H](C)C(=O)N[C@@H](CCC(N)=O)C(=O)N[C@@H](CCCCN)C(N)=O)C(C)C)[C@@H](C)CC [AT294, [hGIP(3-30)NH2[E3K]-C16diacid/3]] |  | −8.6 |  | −8.7 | 
CC[C@H](C)[C@H](NC(=O)[C@H](CO)NC(=O)[C@H](Cc1ccc(O)cc1)NC(=O)[C@H](CC(=O)O)NC(=O)[C@H](CO)NC(=O)[C@@H](NC(=O)[C@H](Cc1ccccc1)NC(=O)[C@@H](N)CCCCNC(=O)CCCCCCCCCCCCCCC(=O)O)[C@@H](C)CC)C(=O)N[C@@H](C)C(=O)N[C@@H](CCSC)C(=O)N[C@@H](CC(=O)O)C(=O)N[C@@H](CCCCN)C(=O)N[C@H](C(=O)N[C@@H](Cc1c[nH]cn1)C(=O)N[C@@H](CCC(N)=O)C(=O)N[C@@H](CCC(N)=O)C(=O)N[C@@H](CC(=O)O)C(=O)N[C@@H](Cc1ccccc1)C(=O)N[C@H](C(=O)N[C@@H](CC(N)=O)C(=O)N[C@@H](Cc1c[nH]c2ccccc12)C(=O)N[C@@H](CC(C)C)C(=O)N[C@@H](CC(C)C)C(=O)N[C@@H](C)C(=O)N[C@@H](CCC(N)=O)C(=O)N[C@@H](CCCCN)C(N)=O)C(C)C)[C@@H](C)CC [AT293, [hGIP(5-30)NH2[T5KK]-C16diacid/5]] |  | −7.8 | 14 nM |  | 
CCCCCCCCCCCC(=O)NCCCC[C@H](NC(=O)[C@@H](NC(=O)[C@H](CCCCN)NC(=O)[C@H](CC(=O)O)NC(=O)[C@H](CCSC)NC(=O)[C@H](C)NC(=O)[C@@H](NC(=O)[C@H](CO)NC(=O)[C@H](Cc1ccc(O)cc1)NC(=O)[C@H](CC(=O)O)NC(=O)[C@H](CO)NC(=O)[C@@H](NC(=O)[C@H](Cc1ccccc1)NC(=O)[C@@H](NC(=O)CNC(=O)[C@@H](N)CCC(=O)O)[C@@H](C)O)[C@@H](C)CC)[C@@H](C)CC)[C@@H](C)CC)C(=O)N[C@@H](CCC(N)=O)C(=O)N[C@@H](CCC(N)=O)C(=O)N[C@@H](CC(=O)O)C(=O)N[C@@H](Cc1ccccc1)C(=O)N[C@H](C(=O)N[C@@H](CC(N)=O)C(=O)N[C@@H](Cc1c[nH]c2ccccc12)C(=O)N[C@@H](CC(C)C)C(=O)N[C@@H](CC(C)C)C(=O)N[C@@H](C)C(=O)N[C@@H](CCC(N)=O)C(=O)N[C@@H](CCCCN)C(N)=O)C(C)C [AT116, [hGIP(3-30)NH2—C12/18]] (H-EGTFISDYSIAMDKIK(Lauroyl)QQDFVNWLLAQK-NH2; N-terminus assumed) | 71.2 | −7.9 | 12 nM |  | IC50 (human GIP receptor [1]; 2% HSA, Table 3b, read-out: Binding logIC50 2% HSA (converted)): 321 nM; Fold change HSA (2%)/Casein (0.1%) (human GIP receptor [1]; IC50 (plus HSA)/IC50 (minus HSA)): 5.2; IC50 (human GIP receptor [1]; Table 3b, initial data, read-out: Binding IC50): 71.2 nM; logIC50 0.1% casein (human GIP receptor [1]; binding in 0.1% casein (absence of HSA), log value): −7.2; logIC50 2% HSA (human GIP receptor [1]; binding in presence of 2% HSA, log value): −6.5; IC50 (human GIP receptor [1]; binding in presence of 2% HSA, read-out: logIC50 2% HSA (converted)): 321 nM; Binding fold (paired) (human GIP receptor [1]; fold decrease in affinity compared to GIP(3-30)NH2, Table 3b): 5 fold; Binding log (human GIP receptor [1]; heterologous competition binding, transiently transfected COS-7 cells expressing the human GIP receptor, log value of the nM column): −7.1; cAMP - antagonisme fold (paired) (human GIP receptor [2]; fold vs GIP(3-30)NH2, Table 3b): 1.2 fold

Source: US11572399B2, “Long-acting GIP peptide analogues” (University of Copenhagen, priority 2017, dated 2023)
